Assay results published in the supplement of paper PMC12067230.
Single values of this set are uncertain.

Assay: amyloid nucleation score relative to library mode (yeast Sup35 reporter selection) (log enrichment difference); higher = more amyloid nucleation; sequences are the first 22 residues of the Bri2 peptide extended by up to 12 random residues
Settings: random library (experiment): 1;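 active = nucleation score significantly above 0 at FDR 0.05; inactive = not significantly above 0 or absent from output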
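Also: [psi-pin-] Saccharomyces cerevisiae expressing SupN fusions, induced by 100 µM Cu2SO4, selected 7 d at 30 °C without adenine and uracil, scored by deep sequencing of output versus input.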

Sequence | amyloid nucleation score
EASNCFAIRHFENKFAVETLICLFISYMYLYGDG | inactive
EASNCFAIRHFENKFAVETLICLFKDSRVLCCHP | 0.582
EASNCFAIRHFENKFAVETLICLFKLQEVLHVRR | inactive
EASNCFAIRHFENKFAVETLICLFKNDLGGTGRR | 6.82
EASNCFAIRHFENKFAVETLICLFKQAWARFAQQ | inactive
EASNCFAIRHFENKFAVETLICLFKWGVVKRWRC | inactive
EASNCFAIRHFENKFAVETLICLFLCARRYIGVQ | 0.833
EASNCFAIRHFENKFAVETLICLFLGMNLIRGDQ | 0.0299
EASNCFAIRHFENKFAVETLICLFLIILHDLYDV | inactive
EASNCFAIRHFENKFAVETLICLFMGRFITRTWE | inactive
EASNCFAIRHFENKFAVETLICLFQG | 7.47
EASNCFAIRHFENKFAVETLICLFRACS | 0.636
EASNCFAIRHFENKFAVETLICLFRGQGLLCYQ | inactive
EASNCFAIRHFENKFAVETLICLFRSKMVDGMNV | inactive
EASNCFAIRHFENKFAVETLICLFRVPAERGPRG | inactive
EASNCFAIRHFENKFAVETLICLFSVDSRVYAFK | inactive
EASNCFAIRHFENKFAVETLICLFSVHF | 6.57
EASNCFAIRHFENKFAVETLICLFTKMRHGWSAI | inactive
EASNCFAIRHFENKFAVETLICLFTMDNSMRCM | inactive
EASNCFAIRHFENKFAVETLICLFVIVMVYGTFI | 3.31
EASNCFAIRHFENKFAVETLICLFWRV | inactive

Sequence | amyloid nucleation score
EASNCFAIRHFENKFAVETLICLG | inactive
EASNCFAIRHFENKFAVETLICLGAFSRPTKWVT | inactive
EASNCFAIRHFENKFAVETLICLGALAWHQWMMI | 1.58
EASNCFAIRHFENKFAVETLICLGAPVSWRAGKW | 4.63
EASNCFAIRHFENKFAVETLICLGASNRRLANMN | 4.26
EASNCFAIRHFENKFAVETLICLGAVTLVKIADT | 4.68
EASNCFAIRHFENKFAVETLICLGDFLCSVGERR | 8.28
EASNCFAIRHFENKFAVETLICLGDTWLAQCCSL | 6.18
EASNCFAIRHFENKFAVETLICLGERSIGRDPAV | 0
EASNCFAIRHFENKFAVETLICLGG | 4.62
EASNCFAIRHFENKFAVETLICLGGCRTRDSVAG | 2.6
EASNCFAIRHFENKFAVETLICLGHSANRDVWLL | 2.28
EASNCFAIRHFENKFAVETLICLGHVCDVPWWGC | 6.27
EASNCFAIRHFENKFAVETLICLGIDLGGSVRSC | 3.15
EASNCFAIRHFENKFAVETLICLGIYITAVVHVH | 0.435
EASNCFAIRHFENKFAVETLICLGKNTQTERYST | 0.307
EASNCFAIRHFENKFAVETLICLGKVSFTGGWYS | 4.69
EASNCFAIRHFENKFAVETLICLGLWSGMGIVRW | inactive
EASNCFAIRHFENKFAVETLICLGLYRCNAKLFR | -0.0194
EASNCFAIRHFENKFAVETLICLGMASGLSDHKR | 1.92
EASNCFAIRHFENKFAVETLICLGMDVTVGPPNA | -0.302

Same assay, conditions: random library (experiment): 2

Sequence | amyloid nucleation score
EASNCFAIRHFENKFAVETLICLFISPWQTEVVV | inactive
EASNCFAIRHFENKFAVETLICLFKEYRS | inactive
EASNCFAIRHFENKFAVETLICLFLMCSLFLCVV | 4.05
EASNCFAIRHFENKFAVETLICLFLVIFRRHVLV | inactive
EASNCFAIRHFENKFAVETLICLFMILSCPLL | inactive
EASNCFAIRHFENKFAVETLICLFMLPERLMCCG | 4.47
EASNCFAIRHFENKFAVETLICLFMMIFYCRVLT | inactive
EASNCFAIRHFENKFAVETLICLFNGVR | inactive
EASNCFAIRHFENKFAVETLICLFNTGVFSYTAV | 2.26
EASNCFAIRHFENKFAVETLICLFPCAGGLSSTL | 9.64
EASNCFAIRHFENKFAVETLICLFQ | 8.13
EASNCFAIRHFENKFAVETLICLFRFSYIGSWV | inactive
EASNCFAIRHFENKFAVETLICLFRT | inactive
EASNCFAIRHFENKFAVETLICLFRVR | inactive
EASNCFAIRHFENKFAVETLICLFRYVLTLSPLA | 0.378
EASNCFAIRHFENKFAVETLICLFSGMTTGVICR | inactive
EASNCFAIRHFENKFAVETLICLFSMVTGFGNEL | -0.0953
EASNCFAIRHFENKFAVETLICLFSSPALPVRLG | inactive
EASNCFAIRHFENKFAVETLICLFSSVIWFCGTT | inactive
EASNCFAIRHFENKFAVETLICLFSYCSTSLVTF | 0.0202
EASNCFAIRHFENKFAVETLICLFTSRECGRWFL | inactive

Sequence | amyloid nucleation score
EASNCFAIRHFENKFAVETLICLFTYCVVMSLVE | 1.58
EASNCFAIRHFENKFAVETLICLFVHLD | inactive
EASNCFAIRHFENKFAVETLICLFVVFNYNLCSR | inactive
EASNCFAIRHFENKFAVETLICLFWSMYHVTTRS | inactive
EASNCFAIRHFENKFAVETLICLFWTKNTLANLC | inactive
EASNCFAIRHFENKFAVETLICLFYI | 3.14
EASNCFAIRHFENKFAVETLICLGAMITFNCAGR | 6.23
EASNCFAIRHFENKFAVETLICLGCNSFCHHNKG | 8.69
EASNCFAIRHFENKFAVETLICLGCVRIEGFFRG | 7.31
EASNCFAIRHFENKFAVETLICLGCVYQCFPDVL | 8.15
EASNCFAIRHFENKFAVETLICLGEYVPCGRSIG | 1.96
EASNCFAIRHFENKFAVETLICLGFHHLLKWS | -0.215
EASNCFAIRHFENKFAVETLICLGFNINLRSSHQ | 9.16
EASNCFAIRHFENKFAVETLICLGHDS | 2.18
EASNCFAIRHFENKFAVETLICLGIAK | inactive
EASNCFAIRHFENKFAVETLICLGIGAFDSMYVD | 6.31
EASNCFAIRHFENKFAVETLICLGIITTWMRYTG | inactive
EASNCFAIRHFENKFAVETLICLGIL | 7.37
EASNCFAIRHFENKFAVETLICLGKNSSAKLGIG | inactive
EASNCFAIRHFENKFAVETLICLGLCNFSYCPSR | 8.49
EASNCFAIRHFENKFAVETLICLGLRTNVHSSNI | 3.19

Same assay, conditions: random library (experiment): 3

Sequence | amyloid nucleation score
EASNCFAIRHFENKFAVETLICLFIVNSARNKVR | inactive
EASNCFAIRHFENKFAVETLICLFRCKMLSSV | inactive
EASNCFAIRHFENKFAVETLICLFRSSFSWPLCV | inactive
EASNCFAIRHFENKFAVETLICLFSSSR | 5.12
EASNCFAIRHFENKFAVETLICLFV | inactive
EASNCFAIRHFENKFAVETLICLFVVRGLCRVPR | inactive
EASNCFAIRHFENKFAVETLICLFWFHGTESSAE | 4.34
EASNCFAIRHFENKFAVETLICLFYSGFEVCLIR | inactive
EASNCFAIRHFENKFAVETLICLGA | inactive
EASNCFAIRHFENKFAVETLICLGALASARVGDL | 6.9
EASNCFAIRHFENKFAVETLICLGCRLFGGVGAR | 3.86
EASNCFAIRHFENKFAVETLICLGCRQLWLGGVR | inactive
EASNCFAIRHFENKFAVETLICLGCYRVPACVAC | 4.36
EASNCFAIRHFENKFAVETLICLGDLEWAVRVRA | 3.58
EASNCFAIRHFENKFAVETLICLGDVHTAIWSRW | 8.46
EASNCFAIRHFENKFAVETLICLGEFTDVTFEAL | 2.78
EASNCFAIRHFENKFAVETLICLGELRKKVECLW | inactive
EASNCFAIRHFENKFAVETLICLGERGQPGCRMG | 3.42

Sequence | amyloid nucleation score
EASNCFAIRHFENKFAVETLICLGERTWCSWT | inactive
EASNCFAIRHFENKFAVETLICLGETW | inactive
EASNCFAIRHFENKFAVETLICLGGGAYDQGEDW | inactive
EASNCFAIRHFENKFAVETLICLGGLSWVVYGWA | inactive
EASNCFAIRHFENKFAVETLICLGGNSRGDDMEG | 1.47
EASNCFAIRHFENKFAVETLICLGGS | inactive
EASNCFAIRHFENKFAVETLICLGGSWLIVPGDM | 2.97
EASNCFAIRHFENKFAVETLICLGHGVGREQQWR | 3.26
EASNCFAIRHFENKFAVETLICLGHSTNLECSIY | 6
EASNCFAIRHFENKFAVETLICLGHTL | inactive
EASNCFAIRHFENKFAVETLICLGIRAYRRWMRA | inactive
EASNCFAIRHFENKFAVETLICLGIYYIVSSYCR | inactive
EASNCFAIRHFENKFAVETLICLGKARIPAGTRL | inactive
EASNCFAIRHFENKFAVETLICLGKMDGGPSRPV | 4.4
EASNCFAIRHFENKFAVETLICLGLEQPCICVPQ | 6.96
EASNCFAIRHFENKFAVETLICLGLFPRYDGSAR | 6.45
EASNCFAIRHFENKFAVETLICLGLLFFVQMIWG | 2.99
EASNCFAIRHFENKFAVETLICLGLSEGWTGEVV | inactive
